Test results: paper PMC6212790
The list shows a part of the results. At the low end of the ranking the order means little.

What follows are sequences tested against T1, GST-Rok (full length) (UniProt O34857) (assay: protein binding microarray). Conditions: Rok is a gene silencer of Bacillus subtilis; high values mean tight binding; most listed sequences are background and not binding sites; double strand, one strand shown.
T1 sequence: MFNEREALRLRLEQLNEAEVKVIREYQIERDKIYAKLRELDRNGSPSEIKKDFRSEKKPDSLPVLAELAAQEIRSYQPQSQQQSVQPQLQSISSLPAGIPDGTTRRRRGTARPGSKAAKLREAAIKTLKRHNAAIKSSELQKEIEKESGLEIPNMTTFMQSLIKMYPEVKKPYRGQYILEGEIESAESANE
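Also: rank score from −0.5 (least bound) to 0.5 (best bound).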

Q: Which binding signal does the source give for CCAGATTA here?
A: The binding signal was -0.1 E-score.

Q: How did the binding signal turn out when CCTCCTTA was run?
A: Its binding signal is -0.0715 E-score.

Q: CGCTTCGC was tested. Which binding signal did it give?
A: Its binding signal is -0.22 E-score.

Q: With AGCATATA as the sequence, how does the binding signal read?
A: The binding signal was 0.258 E-score.

Q: For CGAACTCA, which binding signal is on record?
A: The binding signal was -0.00103 E-score.

Q: CCGAAGCC was tested. Which binding signal did it give?
A: Its binding signal is -0.296 E-score.

Q: AGGAGACG was tested. Which binding signal did it give?
A: The binding signal was -0.263 E-score.

Q: How did the binding signal turn out when ACGAAGCG was run?
A: Its binding signal is -0.0788 E-score.

Q: With GAACCTAA as the sequence, how does the binding signal read?
A: Its binding signal is 0.0633 E-score.

Q: With GCGTAGCC as the sequence, how does the binding signal read?
A: Its binding signal is -0.289 E-score.

Q: AGGCTACG was tested. Which binding signal did it give?
A: The binding signal was -0.263 E-score.

Q: How did the binding signal turn out when CATCCACA was run?
A: The binding signal was 0.0526 E-score.

Q: How did the binding signal turn out when CACATCAG was run?
A: Its binding signal is -0.0252 E-score.

Q: With CATCCCGG as the sequence, how does the binding signal read?
A: Its binding signal is -0.27 E-score.

Q: Which binding signal does the source give for CAGCCGAA here?
A: Its binding signal is -0.0198 E-score.

Q: With GCCTGATA as the sequence, how does the binding signal read?
A: Its binding signal is -0.0265 E-score.

Q: For ATAAACCG, which binding signal is on record?
A: The binding signal was 0.105 E-score.

Q: AGGCAAAT was tested. Which binding signal did it give?
A: The binding signal was 0.0934 E-score.

Q: For ATAATAAG, which binding signal is on record?
A: Its binding signal is 0.305 E-score.

Q: For GCAAACCC, which binding signal is on record?
A: The binding signal was -0.0236 E-score.

Q: With AAACCCGA as the sequence, how does the binding signal read?
A: The binding signal was -0.202 E-score.

Q: Which binding signal does the source give for CTCTTATA here?
A: Its binding signal is 0.128 E-score.

Q: CGGTTCGA was tested. Which binding signal did it give?
A: The binding signal was -0.134 E-score.

Q: CCTGTTTC was tested. Which binding signal did it give?
A: The binding signal was -0.0211 E-score.

Q: How did the binding signal turn out when CGTTATGA was run?
A: The binding signal was -0.0723 E-score.

Q: Which binding signal does the source give for CCACAACG here?
A: Its binding signal is -0.192 E-score.

Q: ACGTGCAG was tested. Which binding signal did it give?
A: Its binding signal is -0.0273 E-score.

Q: For AGACTATC, which binding signal is on record?
A: Its binding signal is 0.0106 E-score.

Q: ACTAGACA was tested. Which binding signal did it give?
A: Its binding signal is 0.054 E-score.

Q: Which binding signal does the source give for GTGCCGGA here?
A: The binding signal was -0.299 E-score.

Q: CGGAGACA was tested. Which binding signal did it give?
A: Its binding signal is -0.0534 E-score.

Q: CCTCCGAC was tested. Which binding signal did it give?
A: The binding signal was -0.284 E-score.

Q: How did the binding signal turn out when TGTGTGAA was run?
A: The binding signal was 0.0261 E-score.

Q: For GTTTAGAA, which binding signal is on record?
A: The binding signal was 0.169 E-score.

Q: For AAATGTCC, which binding signal is on record?
A: The binding signal was 0.0591 E-score.

Q: TAGACTGA was tested. Which binding signal did it give?
A: Its binding signal is -0.0544 E-score.

Q: Which binding signal does the source give for ACCCCGTG here?
A: The binding signal was -0.281 E-score.

Q: ACGAATGG was tested. Which binding signal did it give?
A: Its binding signal is -0.0358 E-score.

Q: For CTTGCAGC, which binding signal is on record?
A: The binding signal was -0.179 E-score.

Q: For AACCCTAG, which binding signal is on record?
A: Its binding signal is -0.0821 E-score.

Q: GATGGAAA was tested. Which binding signal did it give?
A: Its binding signal is -0.128 E-score.

Q: How did the binding signal turn out when ATGGGTGA was run?
A: The binding signal was -0.0657 E-score.

Q: ATAGAGAG was tested. Which binding signal did it give?
A: Its binding signal is -0.0418 E-score.

Q: How did the binding signal turn out when CTTGCTAA was run?
A: Its binding signal is -0.132 E-score.

Q: Which binding signal does the source give for CAGGCTCA here?
A: The binding signal was -0.237 E-score.

Q: For AGATTCAA, which binding signal is on record?
A: Its binding signal is 0.0974 E-score.

Q: With AATCGGCT as the sequence, how does the binding signal read?
A: Its binding signal is -0.0365 E-score.

Q: Which binding signal does the source give for AGCTGTTA here?
A: The binding signal was 0.0865 E-score.

Q: For AAACCTAT, which binding signal is on record?
A: Its binding signal is 0.0862 E-score.

Q: Which binding signal does the source give for CAACGCAC here?
A: Its binding signal is -0.172 E-score.

Q: For AAGTACAG, which binding signal is on record?
A: The binding signal was 0.272 E-score.

Q: How did the binding signal turn out when CTATATTC was run?
A: Its binding signal is 0.353 E-score.

Q: Which binding signal does the source give for CAGCCCAC here?
A: Its binding signal is -0.257 E-score.

Q: For AAAACAAA, which binding signal is on record?
A: Its binding signal is -0.04 E-score.

Q: Which binding signal does the source give for ACGTCTTC here?
A: The binding signal was -0.015 E-score.

Q: GAAAAATA was tested. Which binding signal did it give?
A: Its binding signal is 0.279 E-score.

Q: AGGAGTGA was tested. Which binding signal did it give?
A: Its binding signal is -0.183 E-score.

Q: For AGGATACC, which binding signal is on record?
A: The binding signal was -0.0935 E-score.

Q: With ATCGTCAC as the sequence, how does the binding signal read?
A: Its binding signal is -0.0049 E-score.

Q: For CCAACCCG, which binding signal is on record?
A: The binding signal was -0.117 E-score.

Q: For CACTATCC, which binding signal is on record?
A: Its binding signal is -0.103 E-score.

Q: AAATTCGT was tested. Which binding signal did it give?
A: Its binding signal is 0.226 E-score.

Q: Which binding signal does the source give for TCTGACAA here?
A: Its binding signal is -0.0142 E-score.

Q: For GCCTTAGA, which binding signal is on record?
A: Its binding signal is -0.0778 E-score.

Q: With CGGATGCC as the sequence, how does the binding signal read?
A: The binding signal was -0.207 E-score.

Q: AATGGTGA was tested. Which binding signal did it give?
A: The binding signal was 0.0186 E-score.

Q: How did the binding signal turn out when GGTGCAAA was run?
A: The binding signal was 0.0938 E-score.

Q: CAGTTCAA was tested. Which binding signal did it give?
A: Its binding signal is 0.0497 E-score.

Q: For ACCTCGGG, which binding signal is on record?
A: Its binding signal is -0.0475 E-score.

Q: How did the binding signal turn out when ACCTCGGC was run?
A: The binding signal was -0.295 E-score.

Q: With TGGAAACA as the sequence, how does the binding signal read?
A: The binding signal was -0.0824 E-score.

Q: For CCAAAAAA, which binding signal is on record?
A: Its binding signal is 0.0994 E-score.

Q: ATTTAGTA was tested. Which binding signal did it give?
A: Its binding signal is 0.363 E-score.

Q: For AAGACGAG, which binding signal is on record?
A: Its binding signal is -0.145 E-score.

Q: With CCCCCTGC as the sequence, how does the binding signal read?
A: Its binding signal is -0.339 E-score.

Q: For TGCATGAA, which binding signal is on record?
A: The binding signal was 0.0378 E-score.

Q: ATGCGCAA was tested. Which binding signal did it give?
A: The binding signal was 0.0571 E-score.

Q: For CGAGAGGA, which binding signal is on record?
A: The binding signal was -0.308 E-score.

Q: For GAACATGC, which binding signal is on record?
A: The binding signal was 0.0287 E-score.

Q: For CGCTCTTA, which binding signal is on record?
A: The binding signal was -0.109 E-score.

Q: Which binding signal does the source give for CAGCTCAA here?
A: The binding signal was -0.0538 E-score.

Q: How did the binding signal turn out when TAACCCCA was run?
A: Its binding signal is -0.179 E-score.

Q: How did the binding signal turn out when CGTTGCTA was run?
A: The binding signal was 0.158 E-score.

Q: With GTATTCTA as the sequence, how does the binding signal read?
A: The binding signal was 0.25 E-score.

Q: For TCCCGCAA, which binding signal is on record?
A: The binding signal was 0.0872 E-score.

Q: With ATTATCTA as the sequence, how does the binding signal read?
A: The binding signal was 0.412 E-score.

Q: How did the binding signal turn out when GAAGTTGA was run?
A: Its binding signal is -0.0345 E-score.

Q: Which binding signal does the source give for AGTCAGCA here?
A: The binding signal was -0.0464 E-score.

Q: Which binding signal does the source give for ACCTCAAC here?
A: The binding signal was -0.22 E-score.

Q: Which binding signal does the source give for AAACTGCG here?
A: The binding signal was -0.00401 E-score.

Q: With ATGTGCAC as the sequence, how does the binding signal read?
A: Its binding signal is 0.103 E-score.

Q: Which binding signal does the source give for GTGCCTAA here?
A: The binding signal was -0.233 E-score.

Q: Which binding signal does the source give for CCGACGTC here?
A: The binding signal was -0.176 E-score.

Q: ATGAGTAA was tested. Which binding signal did it give?
A: Its binding signal is 0.16 E-score.
